# Results: article PMC4336329 (PLoS ONE, 2015)
# Among all 310,000 compounds or so, about 14,000 (4.5%) showed an effect of 50% or more. The effect is printed as a negative number. Some of the results follow.
# Target: human ether-à-go-go-related gene (hERG) potassium channel (human, UniProt Q12809)
# Test: primary screen, population patch clamp on CHO cells stably expressing hERG
# 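Further: peak tail current of the secondary pulse compared with the same well before compound.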
# Sequence of human ether-à-go-go-related gene (hERG) potassium channel (Q12809 whole entry, looked up): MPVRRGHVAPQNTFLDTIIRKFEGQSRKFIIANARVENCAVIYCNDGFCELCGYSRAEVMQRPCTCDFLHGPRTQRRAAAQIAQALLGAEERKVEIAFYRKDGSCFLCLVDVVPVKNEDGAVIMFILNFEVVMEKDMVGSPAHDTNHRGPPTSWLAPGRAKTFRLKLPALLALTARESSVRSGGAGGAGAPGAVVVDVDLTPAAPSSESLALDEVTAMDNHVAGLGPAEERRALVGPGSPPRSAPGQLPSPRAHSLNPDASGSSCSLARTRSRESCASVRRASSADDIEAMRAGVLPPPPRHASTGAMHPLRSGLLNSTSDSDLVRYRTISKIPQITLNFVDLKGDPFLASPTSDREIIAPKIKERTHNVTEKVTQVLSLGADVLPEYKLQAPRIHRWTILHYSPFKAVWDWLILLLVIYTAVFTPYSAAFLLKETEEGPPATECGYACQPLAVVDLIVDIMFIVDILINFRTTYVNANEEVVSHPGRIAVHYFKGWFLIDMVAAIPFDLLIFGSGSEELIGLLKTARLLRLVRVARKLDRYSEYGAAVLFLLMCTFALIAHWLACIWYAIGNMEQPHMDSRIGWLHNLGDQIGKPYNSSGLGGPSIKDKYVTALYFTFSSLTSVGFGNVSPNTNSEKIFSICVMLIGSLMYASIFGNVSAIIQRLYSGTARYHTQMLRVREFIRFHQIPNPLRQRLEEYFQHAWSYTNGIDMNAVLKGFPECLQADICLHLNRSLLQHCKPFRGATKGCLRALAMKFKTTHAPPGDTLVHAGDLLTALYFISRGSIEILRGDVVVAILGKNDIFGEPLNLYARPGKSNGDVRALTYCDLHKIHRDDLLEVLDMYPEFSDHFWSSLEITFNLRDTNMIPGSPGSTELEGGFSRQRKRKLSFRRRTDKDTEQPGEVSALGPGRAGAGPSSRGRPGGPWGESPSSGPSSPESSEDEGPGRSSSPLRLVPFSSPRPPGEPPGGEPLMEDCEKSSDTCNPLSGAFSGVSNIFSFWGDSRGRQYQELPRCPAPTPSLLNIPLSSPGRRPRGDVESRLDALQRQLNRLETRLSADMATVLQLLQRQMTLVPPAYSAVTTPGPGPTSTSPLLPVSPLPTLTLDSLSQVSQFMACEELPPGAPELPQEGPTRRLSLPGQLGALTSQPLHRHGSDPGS
row,Compound,"hERG current change (%, negative = inhibition) at 10uM"
1,CC(=O)N1CCN(c2ccc(NC(=S)NC(=O)c3ccc(C)c([N+](=O)[O-])c3)cc2)CC1,-34.5%
2,COc1cccc2sc(N(C)c3ccccc3)nc12,-3.98%
3,O=C(CCC(=O)NNC(=O)Cc1ccccc1)NCc1ccccc1,-12.9%
4,O=C(NCCc1ccccc1)c1n[nH]c(=O)c2ccccc12,12.8%
5,CCO[C@@H]1OC(C(=O)NC2CC2)=C[C@H](c2coc3ccccc3c2=O)[C@H]1CCCO,-9.07%
6,O=C(NC(Cc1ccc(O)cc1)C(=O)O)/C(=C/c1ccccc1)NC(=O)c1ccccc1 (centres unmarked),4.33%
7,O=C1c2ccccc2-c2c1nc1c([n+]2[O-])CCCC1,-2.6%
8,COc1ccc2nc(NC(=O)CSc3nc(C)cc(C)n3)sc2c1,-32.3%
9,COc1ccc(C(=O)OCC(=O)Nc2c(C)cccc2C)cc1,17.4%
10,O=C(O)c1ccc(Cl)c(S(=O)(=O)NC(Cc2ccccc2)C(=O)O)c1 (centres unmarked),17.6%
11,CC(=O)NC(=O)COC(=O)/C=C/c1c(C)nn(Cc2c(Cl)cccc2Cl)c1Cl,-2.82%
12,CC1(C)N=C(N)NC(Nc2cccc(Br)c2)=N1,4.04%
13,COc1ccc2nc(N3CCCC(C(=O)NCCCN4C(C)CCCC4C)C3)sc2c1 (centres unmarked),-34.1%
14,Cc1cc(NS(=O)(=O)c2ccc(C(C)C)cc2)no1,-3.92%
15,COc1ccc(-n2c(Cc3cc(=O)[nH]c(=O)[nH]3)nnc2SCC(=O)NC2CCCC2)cc1,21.7%
16,COc1ccc(CNc2nn[nH]n2)cc1OC,13.5%
17,CC(C)(C)c1ccc(C(CC(=O)O)NS(=O)(=O)Cc2ccccc2)cc1 (centres unmarked),18.6%
18,CC(=O)c1ccc(S(=O)(=O)N2CCCc3ccccc32)cc1,7.65%
19,COc1cc(-n2c(-c3ccccc3)n[nH]c2=S)c(OC)cc1Cl,15.4%

row,Compound,"hERG current change (%, negative = inhibition) at 10uM"
1,Cc1cc(C)c(S(=O)(=O)c2cccc(Br)c2C)c(Cl)n1,9.54%
2,O=C(CSc1ccc2nnc(-c3ccncc3)n2n1)NCC1CCCO1 (centres unmarked),11%
3,CCc1cccc(NC(=O)c2ccc(Cn3c(=O)[nH]c4ccsc4c3=O)cc2)c1,14.2%
4,O=C(NCCCN1CCOCC1)c1cccc(S(=O)(=O)N2CCc3ccccc3C2)c1,-17%
5,CN1OCC2Cn3c(nc4ccccc43)C21 (centres unmarked),23.6%
6,O=C(CSc1nc2ccc(Cl)cc2o1)NCc1ccc2c(c1)OCO2,10%
7,CC(=O)Nc1ccc(S(=O)(=O)NCc2ccc(C(=O)NCc3ccc4c(c3)OCO4)cc2)cc1,4.58%
8,CCNC(=S)Nc1c(C)n(C)n(-c2ccccc2)c1=O,-0.403%
9,O=C(CSc1nnc(CNc2ccc(F)cc2)n1Cc1ccccc1)NCc1ccco1,-0.992%
10,COc1cc(CN2C(=S)NC(C)(C)CC2(C)O)cc(OC)c1 (centres unmarked),7.64%
11,COCCNC(=O)Cn1c(=O)n(CCCCCC(=O)NCc2ccc3c(c2)OCO3)c(=O)c2sccc21,1.89%
12,Cc1cccc(OCCC(=O)OCc2csc(CC(=O)Nc3ccccc3C)n2)c1,-0.874%
13,N#Cc1c(-c2ccccc2)cc(-c2ccccc2)nc1Br,1.3%
14,O=C(O)CCCC(=O)Nc1ccc(Br)cc1,22.4%
15,Cc1ccc(C)c(SCC(=O)Nc2ccc(C)c(S(=O)(=O)N3CCOCC3)c2)c1,-13.4%
16,CCCCN(c1ccccc1)S(=O)(=O)c1cccc2cccnc12,-19.8%
17,Cc1cc(C)n2c(SC/C(O)=C(\C#N)c3nc4ccccc4[nH]3)nnc2n1,-10.1%
18,CC(C)Cc1n[nH]c(=O)c2c1nnn2Cc1ccccc1F,-11.9%
19,O=C(O)c1ccc(COc2ccc3c(c2)CCC3)cc1,11.4%

row,Compound,"hERG current change (%, negative = inhibition) at 10uM"
1,COc1ccccc1-n1c(CNC(=O)c2ccco2)nnc1SCC(=O)Nc1cc(C)ccc1C,-14.3%
2,CCOC(=O)C1=C2SCCN2C(=O)C(C#N)C1(C)C (centres unmarked),7.34%
3,CC1CC(C)CN(CCCNC(=O)c2csc3c2CCCCC3)C1 (centres unmarked),-61.2%
4,O=C(NNC(=O)c1ccccc1-n1cccc1)c1ccc(Cl)cc1,1.14%
5,Cn1cc(CNCCCn2ncc3ccccc32)c(-c2ccccc2F)n1,-36.3%
6,COc1ccc(C(=O)c2cnc3ccccc3c2-c2ccccc2)cc1,-9.47%
7,CCN(C(=O)Cc1ccccc1OC)c1nnc(-c2ccncc2)s1,-18%
8,Cn1cccc1C(=O)OCC(=O)NCc1ccc2c(c1)OCO2,-10.9%
9,COCCNC(=O)CN(Cc1ccco1)C(=O)CCC(=O)Nc1nccs1,-3.49%
10,CCOc1ccc(NC(=O)CSc2nnc(C3CC3)n2C)cc1S(=O)(=O)N1CCCCC1,-32.9%
11,COCCn1c(=S)[nH]c2cc(C(=O)NCCc3ccccc3)ccc2c1=O,-2.2%
12,CCCN(CCC)CCCNC(=O)c1cn(-c2ccc(OC)cc2)c(=O)c2ccccc12,-48%
13,COc1ccc(CCn2c(=N)c(C(=O)NCCN3CCOCC3)cc3c(=O)n4ccccc4nc32)cc1OC,-32.5%
14,O=C(N=Nc1c(O)n(Cc2ccccc2)c2ccccc12)c1ccc(O)cc1,-29.3%
15,CCN(CC)N=Nc1ccc(S(N)(=O)=O)cc1,31%
16,COc1ccc2ccccc2c1CNc1nnnn1C,17.9%
17,Cc1ccc(S(=O)(=O)n2cnc3ccccc32)cc1[N+](=O)[O-],15.3%
18,O=C(Cn1c(=O)oc2cc(S(=O)(=O)N3CCCC3)ccc21)N1CCN(c2ccccn2)CC1,5.14%
